Test system: BBB in cerebral cortex

With `OC[C@@H](O)[C@@H](O)[C@H](O)[C@H](O)CO` [mannitol] the “exposure required for effective cortical BBB disruption” value (IA with coordinated closure of cCCA) was “around 3 minutes” and the “Gd-CE average signal change area (BBBO territory)” value (T1-weighted scan after IA mannitol, four mice) was 26.50±3.40%.
